Data as given in EP4814006A2 (NAVIGO PROTEINS GMBH, dated 2026).

T1: VEGF (vascular endothelial growth factor) (human, UniProt P15692-4 27-191, limits assumed)
T1 construct: also called VEGF-A
T1 sequence (looked up): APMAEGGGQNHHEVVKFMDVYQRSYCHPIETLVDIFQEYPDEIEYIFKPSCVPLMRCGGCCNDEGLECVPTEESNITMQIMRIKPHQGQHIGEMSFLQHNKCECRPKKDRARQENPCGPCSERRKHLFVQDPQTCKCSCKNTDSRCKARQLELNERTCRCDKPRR


Target: T1, VEGF (vascular endothelial growth …)
Assay: ELISA per the heading of Example 3; the format of the VEGF assay is not described

EC50 [nM]	Binder
< 1	Fusion protein SEQ ID NO: 8 (Aflibercept fused through a 15 amino acid GS-linker to the hyaluronic acid binding protein of SEQ ID NO: 4) (Fc fusion, It forms a homodimer and was expressed in HEK293 cells) SDTGRPFVEMYSEIPEIIHMTEGRELVIPCRVTSPNITVTLKKFPLDTLIPDGKRIIWDSRKGFIISNATYKEIGLLTCEATVNGHLYKTNYLTHRQTNTIIDVVLSPSHGIELSVGEKLVLNCTARTELNVGIDFNWEYPSSKHQHKKLVNRDLKTQSGSEMKKFLSTLTIDGVTRSDQGLYTCAASSGLMTKKNSTFVRVHEK[sequence of human IgG1 Fc not given]GGGSGGGGSGGGGSGVYHREAPSGKYGLTYAEAKAVCEFEGGHLATYKQLEAAQKIGFHVCAAGWMAKGRVGYPIVKPGPNCGFGKTGIIDYGIRLNRSERWDAYCYNPHA
< 1	Fusion protein SEQ ID NO: 7 (Aflibercept fused through a 15 amino acid GS-linker to the hyaluronic acid binding protein of SEQ ID NO: 3) (Fc fusion, It forms a homodimer and was expressed in HEK293 cells) SDTGRPFVEMYSEIPEIIHMTEGRELVIPCRVTSPNITVTLKKFPLDTLIPDGKRIIWDSRKGFIISNATYKEIGLLTCEATVNGHLYKTNYLTHRQTNTIIDVVLSPSHGIELSVGEKLVLNCTARTELNVGIDFNWEYPSSKHQHKKLVNRDLKTQSGSEMKKFLSTLTIDGVTRSDQGLYTCAASSGLMTKKNSTFVRVHEK[sequence of human IgG1 Fc not given]GGGSGGGGSGGGGSGVFHLESPSGKYGLTFDEAREACEAEGATLATYKQLEAAQKAGFHLCSAGWLATGRVAYPTAKPSPNCGSGRVGIVDYGPRPNKSEQWDAYCYRPHA
